Results: PubChem BioAssay AID493208 (National Center for Advancing Translational Sciences (NCATS), 2011)
The campaign covered roughly 44,000 compounds. About 340 (0.77%) were called active. Roughly 5% stayed inconclusive and do not appear here. Calls come from the whole dose curve; as a rule, active = well fitted inhibition curve with a large enough effect; inconclusive = small, poorly fitted or top-dose-only effect; inactive = flat fitted curve, though single readings scatter. The list shows a part of the results.

assay: Acumen qHTS Assay for Inhibitors of the mTORC1 Signaling Pathway in MEF (Tsc2-/-, p53-/-) Cells: Sytravon; details: phospho-rpS6 immunofluorescence/PI, 24 h; series mostly up to 38.3 µM; activity change, negative = inhibition: at the top concentration; note: nearly all actives have a fitted effect of over 50% in size;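 for activity change, negative = inhibition: plate controls were DMSO for no effect and rapamycin for full effect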
Source text: NIH Molecular Libraries Probe Production Centers Network [MLPCN] NIH Chemical Genomics Center [NCGC] MLPCN Grant: NS059428-01 Assay Submitter (PI): Blenis, John; Hoffman, Greg; Harvard University NCGC Assay Overview: The mammalian target of rapamycin (mTOR) is an intracellular serine/threonine kinase Aberrant regulation of mTOR signaling plays a causative role in a number of human diseases, including cancer, benign tumors such as lymphangioleiomyomatosis (LAM) and Tuberous Sclerosis Complex (TSC), and metabolic diseases such as diabetes and obesity. This project aims to identify inhibitors of ribosomal protein S6 (rpS6) phosphorylation. The phosphorylation of rpS6 is a key event downstream of mTOR activation. The assay uses a phospho-specific antibody of phospho-rpS6 to detect inhibitors of mTOR activation. Mutations in the Tsc1 and Tsc2 genes are the underlying genetic lesions responsible for TSC, causing constitutive activation of the mTORC1 pathway and leading to profound effects on cell metabolism. Aberrant metabolism in cancer has recently received significant attention as a target to develop therapeutic agents in the treatment of cancer.1 As Tsc2-/- cells have lost the ability to respond to energy and growth factor deprivation, these cells are unable to properly down regulate cellular biosynthetic processes in response to metabolic stress, and are thus extremely sensitive to glucose deprivation-induced death.2 A central goal of this project is to explore the unique cell survival and metabolic properties of cells with Tsc1 or Tsc2 by screening for compounds that selectively target the Tsc2-/- MEFs by screening both Tsc2-/- and WT MEF cell lines. We hope to better understand these aspects of TSC physiology in order to exploit them for therapeutic benefit.
NCGC Acumen Assay Protocol Summary: For quantitative high throughput analysis of mTORC1 signaling, we developed a cell-based assay for immuno-fluorescence based detection of rpS6 phosphorylation on the Acumen Explorer that will be used a platform for the primary small molecule screen. Mouse embryonic fibroblasts (MEFs) are cultured in 1536-well plates using DMEM + 10% FBS. Twenty-four hrs after plating, test compounds (solubilized in DMSO) are delivered and incubated with the cells for 24 hrs at 37 degree Celsius. Following the incubation, media with compound is aspirated and the cells are fixed in 4% paraformaldehyde (PFA) containing PBS + 0.2% TX-100. Next, PFA is aspirated, cells are washed two times with PBS plus 0.2% TX-100 and the cells are blocked for 1 hr at room temperature (blocking buffer: LiCOR Blocking Buffer plus 0.2% TX-100). […] Cells are washed two times with PBS plus 0.2% TX-100, and stained with 10 uM propidium iodide (PI) for 20-25 minutes for cell number measurement (1:500 dilution of Hoescht staining is also added for IN Cell imaging). The plates are scanned on the Acumen Explorer laser scanning instrument (TTP Labtech) using the 488nm laser for simultaneous excitation of the Alexa-488 and PI. […] The normalized phospho-S6 staining is calculated as the ratio of the integrated Alexa 488 intensity divided by the integrated PI intensity for the single concentration rapamycin control (7.5 nM) and DMSO columns. […] Inhibition of the pathway is defined based on the normalized phospho-S6 intensity in rapamycin treated cells. Active cells are defined as those with a normalized phospho-S6 staining above this threshold, and each treatment is reported as the % positive cells in the well, where thresholds are defined by selecting wells with the highest and lowest signal and differentiating between the % non-active and % active populations. In addition to the pathway specific phospho-S6 endpoint, the number of PI stained cells from the Acumen is recorded as a measure of cell viability. The primary screen was performed with a MEF cell line in a defined genetic background, Tsc2-/-, p53-/- cell line stably transfected with an empty vector control (Tsc2-/- MEF).
Potency is the fitted concentration of half-maximal effect.

Activity change, negative = inhibition, inactive:
COCCNC(=O)C(=O)NCC(c1cccnc1)N1CCN(c2ccccc2OC)CC1 (stereo not drawn) -0.15%
Cc1ccc(CSc2ccc(-c3cccs3)nn2)cc1 1.96%
O=C(Cn1ncc2c3ccccc3n(Cc3ccccc3F)c2c1=O)NC1CCCCCC1 0.583%
O=C(NCc1ccccc1Cl)c1cc2c(s1)-c1ccccc1SC2 2.5%
CC(C)(C)NC(=O)c1cnn(-c2ccccc2)c1C1CCN(C(=O)OC(C)(C)C)CC1 -3.16%
O=S(=O)(Nc1cccc(-c2ccc(N3CCCCCC3)nn2)c1)c1ccccc1F 7.91%
CCC(=O)Nc1ccccc1-c1nc2ccccc2n(CC(=O)c2ccc(C)c(C)c2)c1=O -15.5%
COc1cc(C(=O)NCC(c2cccnc2)N2CCc3ccccc3C2)cc(OC)c1OC (stereo not drawn) 9.65%
Cc1ccc(CN(C(=O)COc2ccc(Cl)c(C)c2)c2ccccn2)o1 -15.1%
CCc1nc2sc3c(N4CCC(C)CC4)ncnc3c2c2c1CCCC2 3.79%
Cc1oc2ncn(C)c(=O)c2c1C(=O)Nc1ccccn1 -0.673%
O=C(CN1C(=O)COc2ccc(S(=O)(=O)N3CCOCC3)cc21)N1CCN(c2cccc(C(F)(F)F)c2)CC1 -5.16%
COc1cc(C2c3c(-c4c(C)cc(C)cc4O)n[nH]c3C(=O)N2CCO)cc(OC)c1OC (stereo not drawn) -13.6%
CN(C)S(=O)(=O)c1ccc(C(=O)NCCS(=O)(=O)N2CCN(c3ccccc3)CC2)cc1 -6.32%
Cc1nc2nc(SCc3c(F)cccc3Cl)nn2c(C)c1Cc1ccccc1 5.74%
Cc1ccc(-c2cc(-c3ccc4c(c3)NC(=O)CO4)nc3c2COc2ccc(C)cc2-3)cc1 2.36%
COc1ccc(-c2noc(COc3cc(C)c(Br)c(C)c3)n2)cc1OC 6.39%
COc1ccc(OC)c(CNC(=O)c2cc3cc4ccc(OC)cc4nc3o2)c1 -12%
Cc1ccc(C(=O)/C=C/c2cn(CC(O)CN3CCc4ccccc43)c3ccccc23)cc1 (stereo not drawn) -0.878%
Cc1cc(-n2c(C)nc3ccccc3c2=O)ccc1NC(=O)c1ccc(C)c([N+](=O)[O-])c1 -4.06%
CCOc1cc2sc(N3CCC(C(=O)Nc4ccccc4Cl)CC3)nc2cc1Br -0.0216%
Cc1cc(S(=O)(=O)C(CNC(=O)COc2ccccc2)c2cccs2)ccc1F (stereo not drawn) 0%
Cc1ccc(-c2nn(CC(=O)NC3CCCC3)c3c2cnc2ccc(F)cc23)cc1C -7.01%
COc1ccc(NC(=O)CCN2CCN(CCO)CC2)c(OC)c1 -2.47%
O=C(Nc1ccc2nc(SCc3ccccc3)sc2c1)c1cccc(F)c1 -1.26%
COc1ccc(OCCSc2nc(C)c(Cc3ccccc3)c(=O)[nH]2)cc1 -3.12%
COc1ccc(Oc2nc3c(c(=O)n(C)c(=O)n3C)n2Cc2ccccc2Cl)cc1 -4.41%
COc1ccccc1Cn1cc(C(=O)c2ccc(Cl)cc2)c(=O)c2cc3c(cc21)OCCO3 -6.55%
CN1CCN(C(=O)c2ccc3c(c2)N(Cc2c(F)cccc2Cl)C(=O)c2ccccc2S3)CC1 2.85%
CCc1sc(Nc2ccc(Cl)cc2)nc1-c1cc2cccc(OC)c2oc1=O -10.6%
CC(C(=O)Nc1ccc(F)c(Cl)c1)N1Cc2ccccc2C1=O (stereo not drawn) -2.25%
COc1ccc(-c2noc(N3CCN(c4cccc(Cl)c4)CC3)n2)cc1OC -0.954%
CCOc1ccc(C(=O)CSc2nnc3cc(C)c4ccccc4n23)cc1 -1.7%
Cc1ccccc1C(=O)Nc1nnc(SCc2cc(=O)n3ccccc3n2)s1 3.89%
COc1ccccc1CNC(=O)COc1cc(=O)n(C)c2ccccc12 1.34%
CCOc1cc(C(=O)Nc2nnc3n2CCS3)cc(OCC)c1OCC -8.11%
CCCCC(CC)CNC(=O)c1ccc2c(=O)n(CCOC)c(=O)[nH]c2c1 (stereo not drawn) -0.455%
CC(=O)c1cccc(S(=O)(=O)N2CCN(c3ccccc3F)CC2)c1 -9.65%
Cc1ccc(N(CC(=O)NCC(C)c2ccccc2)S(=O)(=O)N(C)C)cc1 (stereo not drawn) -5.3%
COc1ccccc1N1CCN(C(=O)c2cnn(-c3ccc(C)c(C)c3)c2C2CCN(C(=O)OC(C)(C)C)CC2)CC1 -7.9%
Cc1ccc(N2CCN(C(=O)NCc3noc4ccccc34)CC2C)cc1 (stereo not drawn) -14.5%
Cc1cccc(C(=O)Nc2ccc(-c3nc4cc(C(C)C)ccc4o3)cc2)c1 18.1%
COc1ccc(S(=O)(=O)n2nc(C)c(S(=O)(=O)N3CCCCCC3)c2C)cc1OC 5.71%
CCOC(=O)c1c(C)oc2ncnc(NCCCN3CCN(c4cc(C)ccc4C)CC3)c12 -2.38%
COc1ccc(-c2c3c(nc4sc(C(=O)Nc5ccc(F)cc5)c(N)c24)CC(C)(C)CC3=O)cc1 -18.9%
CCCOc1ccc(C(=O)N(Cc2cccs2)c2ccc(C)cc2)cc1 -2.41%
COc1ccc(Cl)cc1S(=O)(=O)N1CCN(Cc2cccc(F)c2)CC1 -3.05%

Potency, active:
Cc1cc(OCC(=O)Nc2cc(-c3nc4ccccc4[nH]3)ccc2C)ccc1Cl 14.7 µM
